The structures appear in SMILES notation. The campaign covered roughly 52,000 compounds. About 1,700 (3.3%) were called active. Rule as the data show it: active = survival mostly below about 52% (no sharp cut-off); inactive = mostly above about 56%. This is one part of the list.

In this test the test system is Wild type. Nature of the test: S. aureus survival, RN4220 and DeltatarO strains – OD600, teichoic acid synthesis inhibitors, primary screen (AID 463173). Conditions: S. aureus RN4220 wild type/DeltatarO growth, OD600, 18 h, stronger effect = lower value, screened at 18.75 µg/mL (by protocol).
As to `O=C(CSc1ncn[nH]1)c1ccc(Cl)cc1`, the survival was inactive: 102%.
As for `COc1ccc(NC(=O)CCc2c(C)nn(-c3ccc(N4CCOCC4)nn3)c2C)cc1Cl`, the survival is inactive: 71%.
On to `CCN(CC)CCCNC(=O)c1oc2c(c1C)-c1nn(Cc3ccc(Cl)cc3)cc1CC2`, for which the survival is inactive: 95%.
With `Cc1ccc2occ(CC(=O)Nc3ccc(S(N)(=O)=O)cc3)c2c1`, the survival is inactive: 132%.
Turning to `COc1ccc(NC(=O)Cn2c(C)c3cnn(-c4ccccc4)c(=O)c3c2C)c(OC)c1`, the survival was inactive: 86%.
The value for `Cc1cc(C)n(C(C)CC(=O)O)n1` (centres undefined) was inactive: 103%; that for `Cc1cccc(-c2noc(C3CC(=O)N(c4ccc5c(c4)OCCO5)C3)n2)c1` (centres undefined) was inactive: 79%.
Turning to `Cc1ccc(N(CC(=O)NC(C)c2ccccc2)S(=O)(=O)c2c(C)noc2C)cc1` (centres undefined), the survival is inactive: 98%.
With `CCCCc1noc2c1/C(=N\O)CC(c1ccccc1)C2` (centres undefined), the survival is inactive: 108%.
Turning to `CN1CCN(C(=O)/C=C\C(=O)O)CC1`, the survival is inactive: 122%.
Take `Cc1cc(OCC(=O)Nc2sc3c(c2C(N)=O)CCCC3)ccc1C(C)C`: the survival is inactive: 79%.
In the case of `CCOc1ccc(C2c3c(-c4ccccc4O)n[nH]c3C(=O)N2Cc2ccncc2)cc1` (centres undefined), the survival was inactive: 83%.
Under `CCc1ccc(C(=O)c2cn(CC(=O)Nc3ccc(F)cc3)c3cc4c(cc3c2=O)OCO4)cc1` stands inactive: 137%; under `FC(F)(F)c1cc(-c2ccc3c(c2)OCO3)nc(=S)[nH]1`, inactive: 109%.
Under `COc1ccccc1-c1noc(-c2ccc(N3CCC(C)CC3)c([N+](=O)[O-])c2)n1` stands inactive: 108%.
As to `COc1cc(C(=O)Nc2cc3c(cc2C)n(C)c(=O)c(=O)n3C)cc(OC)c1OC`, the survival is inactive: 83%.
Regarding `CC1Cc2ccccc2N1C(=O)CSc1nnc2c(n1)[nH]c1ccccc12` (centres undefined), the survival is inactive: 112%.
For `Cc1ccc(NC(=O)c2sc3nc(-c4cc5ccccc5oc4=O)[nH]c(=O)c3c2C)c(C)c1`, the survival is inactive: 84%.
As to `CCC(=O)N1CCc2cc(S(=O)(=O)NC(Cc3ccccc3)C(=O)Nc3ccc(C)cc3)ccc21` (centres undefined), the survival was inactive: 74%.
As to `O=C(CC1Sc2ccc(C(F)(F)F)cc2NC1=O)Nc1ccc(Cl)c(C(F)(F)F)c1` (centres undefined), the survival was inactive: 58%.
For `CCN1C(=O)c2ccccc2Sc2ccc(NC(C)=O)cc21`, the survival is inactive: 112%.
In the case of `COc1cc(C(=O)Nc2cc(C)ccc2OCc2cc(=O)n3c(C)csc3n2)cc(OC)c1OC`, the survival is inactive: 49%.
Under `CCCc1cc(=O)[nH]c(Nc2cccc(Cl)c2Cl)n1` stands inactive: 79%; under `CCOc1ccc(-n2c(SCc3ccc(C(=O)OC)o3)nc3c([nH]c4ccccc43)c2=O)cc1`, inactive: 82%; under `CCOc1ccc(-c2cc(OC(=O)c3ccc(F)cc3)c3c(C)oc(C)c3c(=O)c2)cc1`, inactive: 67%.
For `CCCC(C(=O)NC1CCCC1)N(Cc1ccccc1)C(=O)Cn1nnc(-c2ccc(C)o2)n1` (centres undefined), the survival is inactive: 119%.
Turning to `COc1ccc(CCNC(=O)c2cc3c(-c4ccccc4F)nn(C)c3s2)c(OC)c1`, the survival was inactive: 82%.
Regarding `CCOC(=O)C1CCCN(S(=O)(=O)c2ccc3c(c2)CCCN3C(C)=O)C1` (centres undefined), the survival is inactive: 66%.
The value for `COc1ccc(NC(=O)c2cc3c(s2)-c2c(C)cccc2OC3)c(OC)c1` was inactive: 78%; that for `O=C(Nc1ccc(Br)cc1F)c1cc(S(=O)(=O)NCc2ccc(F)cc2)ccc1F` was inactive: 67%; that for `C=C(C)Cn1c(=O)c2c(nc3n2CCN3c2ccc(CC)cc2)n(C)c1=O` was inactive: 114%.
The value for `CCCCNc1nc(Oc2ccc(=O)[nH]n2)nc(N(C)C)n1` was inactive: 84%; that for `CCc1nn(CC(=O)NCCCN(CC)CC)c(=O)c2cc3sc(C)cc3n12` was inactive: 95%.
Under `CSc1ncc(C(=O)Nc2ccccc2C(=O)c2ccccc2)c(C(F)(F)F)n1` stands inactive: 88%; under `Fc1ccc(-n2cc(-c3ccccc3)c3c(NC4CCCCC4)ncnc32)cc1`, inactive: 94%.
On to `CCOC(=O)c1cccc(NC(=O)c2cc3c(=O)n(Cc4ccccc4)ccc3nc2C)c1`, for which the survival is inactive: 102%.
For `O=C(NCCN1CCCCC1)c1ccc(/C=N/O)nc1`, the survival was inactive: 98%.
Regarding `COc1cccc(-n2c(=O)c3c(C)c(C(=O)N(C)C)sc3n(Cc3ccc(F)cc3Cl)c2=O)c1`, the survival was inactive: 83%.
Consider `CCOc1cc(C2C(C(=O)OC)=C(C)NC3=C2C(=O)c2ccccc23)cc(Cl)c1O` (centres undefined), for which the survival was inactive: 71%.
On to `Cc1ccc(-n2ncc3c(NCCCN4CCOCC4)ncnc32)cc1`, for which the survival is inactive: 78%.
In the case of `O=C(CCC1N=C2c3ccccc3N=C(SCc3ccccc3F)N2C1=O)NC1CCCCC1` (centres undefined), the survival was inactive: 78%.
For the molecule `CCn1c2ccccc2c2nnc(N3CCN(c4cc(C)ccc4C)CC3)nc21`, the survival is inactive: 87%.
With `Fc1ccc(-c2nc(Nc3cccc(Cl)c3)nc3c2COc2ccccc2-3)cc1`, the survival is inactive: 80%.
As to `COc1ccc(NC(=O)CN(Cc2ccccc2)S(=O)(=O)c2ccc(C)cc2)cc1Cl`, the survival is inactive: 123%.
On to `COc1ccc(N2CCN(S(=O)(=O)c3ccc4c(c3)CC(C)N4C(C)=O)CC2)cc1` (centres undefined), for which the survival is inactive: 55%.
`CCOc1ccccc1NC(=O)c1cc2c(Cl)nc3ccccc3c2s1`: the survival is inactive: 70%.
Under `COc1ccc(NC(=O)C2Cc3ccccc3N2C(=O)c2ccccc2)c(OC)c1` (centres undefined) stands inactive: 74%.
With `CCCCCCSc1n[nH]c(=O)[nH]c1=O`, the survival is inactive: 107%.
In the case of `CCN(CCCNC(=O)c1c(C)oc2ncn(CC(C)C)c(=O)c12)Cc1ccccc1`, the survival was inactive: 59%.
Under `Cc1ccc(Cl)cc1NC(=O)c1oc2c(c1C)-c1[nH]ncc1CC2` stands inactive: 114%.
Consider `COc1ccc(N(Cc2cccs2)C(=O)COc2cccc(Cl)c2)cc1`, for which the survival was inactive: 56%.
For `CC1=C(C(=O)OC2CCCCCC2)C(c2c(F)cccc2Cl)CC(=O)N1` (centres undefined), the survival is inactive: 56%.
Consider `CCOC(=O)c1c(Nc2ccc(C)cc2)nnc(-c2ccccc2)c1-c1ccccc1`, for which the survival is active: 2%.
`Cn1c(=O)n(-c2ccc(F)c(Cl)c2)c(=O)c2sc3ccccc3c21`: the survival was inactive: 96%.
For the molecule `CCC1CCCCN1C(=O)c1ccc2c(c1)N(Cc1cccc(Cl)c1)C(=O)c1ccccc1S2(=O)=O` (centres undefined), the survival was inactive: 73%.
For the molecule `COc1ccc(NCc2cc3cc4c(cc3n(CC(=O)Nc3ccc(F)cc3F)c2=O)OCO4)cc1`, the survival is inactive: 60%.
On to `COc1ccc2c(C)c(CCC(=O)NCCc3ccccc3OC)c(=O)oc2c1`, for which the survival was inactive: 79%.
For `COC(=O)CCSc1nc2sc3c(c2c(=O)n1Cc1ccccc1)CCC(C(C)(C)C)C3` (centres undefined), the survival is inactive: 66%.
As for `O=C(CN(Cc1ccc2c(c1)OCO2)C(=O)CSc1nc2ccccc2o1)NC1CCCCC1`, the survival was inactive: 105%.
The value for `Cc1cc(F)ccc1NC(=O)CCS(=O)(=O)c1ccc2c(c1)NC(=O)CO2` was inactive: 86%; that for `O=C(Nc1ccc(Cl)cc1)C1CCCN(S(=O)(=O)c2ccc3[nH]c(=O)ccc3c2)C1` (centres undefined) was inactive: 106%.
For `CCOc1cccc2cc(-c3nc(-c4ccccc4C)no3)c(=O)oc12`, the survival is inactive: 84%.
Under `Cc1ccc(Oc2c(C(F)(F)F)oc3c(CN4CCCCC4)c(O)ccc3c2=O)cc1` stands inactive: 73%; under `CCOC(=O)c1ccccc1NC(=O)CSc1cn(CC(=O)N2CCCCC2)c2ccccc12`, inactive: 94%; under `Cc1nc2c(-c3ccccc3)c(C)nn2c(C)c1CCC(=O)NC(C)c1ccccc1` (centres undefined), inactive: 75%.
Turning to `COc1cccc(CNC(=O)C2CCCN(S(=O)(=O)c3ccc4c(ccn4C)c3)C2)c1` (centres undefined), the survival was inactive: 130%.
Under `CCc1ccccc1NS(=O)(=O)c1ccc2[nH]cc(C(=O)N3CCCCC3)c(=O)c2c1` stands inactive: 127%.
With `COc1cc(CN(C(=O)Nc2ccccc2)c2ccccn2)cc(OC)c1OC`, the survival is inactive: 86%.
For `CCOC(=O)c1cccc(NC(=O)c2oc3c(c2C)-c2[nH]ncc2CC3)c1`, the survival is inactive: 74%.
In the case of `CCCN(C(=O)c1cc2c(s1)-c1ccccc1OC2)c1ccccc1F`, the survival was active: -2%.
For the molecule `CCC(C(=O)Nc1ccc(C(=O)OC)cc1)n1c(=O)c(-c2ccccc2NC(C)=O)nc2ccccc21` (centres undefined), the survival was inactive: 103%.
Turning to `COc1ccc(NC(=O)CC2C(=O)N(c3ccc(F)cc3)C(=O)N2Cc2cccnc2)cc1` (centres undefined), the survival was inactive: 124%.
For `CC(C)CCNC(=O)c1cccc(Nc2nc3ccccc3n3nnnc23)c1`, the survival was inactive: 79%.
For `Cc1ccc(NC(=O)c2cc(S(=O)(=O)NCCC3=CCCCC3)ccc2F)cc1F`, the survival is inactive: 82%.
As for `COc1ccc(Cl)cc1NC(=O)c1ccc2nc(Cc3ccccc3)oc2c1`, the survival is inactive: 78%.
Regarding `O=C(O)c1cccc(N=C2NC(=O)C(CO)(CO)S2)c1`, the survival is inactive: 117%.
The value for `CCCC(=O)Nc1cc(C)c(O)c(-c2nc3ncccc3o2)c1` was inactive: 75%; that for `Cc1ccc(-n2nc(C(=O)N3CCN(c4cc(Cl)ccc4C)CC3)c(=O)n(C)c2=O)cc1` was inactive: 136%.
On to `OCC1OC(n2nnc3ccccc32)C(O)C(O)C1O` (centres undefined), for which the survival was inactive: 120%.
On to `Cc1cc(NC(=O)c2ccc(Br)o2)cc(-c2nc3ccccc3o2)c1O`, for which the survival is inactive: 90%.
Consider `CCCCNC(=O)C1CCCN(Cc2nc(-c3ccc(Cl)cc3)oc2C)C1` (centres undefined), for which the survival was inactive: 87%.
Turning to `CCc1ccc(C(=O)c2cn(CC(=O)Nc3ccc(F)c(F)c3)c3cc(OC)c(OC)cc3c2=O)cc1`, the survival was inactive: 111%.
The value for `COc1ccc(NC(=O)C(NS(=O)(=O)c2ccc3c(c2)CCCC(=O)N3)C(C)C)c(OC)c1` (centres undefined) was inactive: 110%; that for `Cc1cc(C)c(NC(=O)CSc2ccnc(=O)[nH]2)c(C)c1` was inactive: 74%; that for `O=C(NCCCN1CCCC1)c1ccccc1Cl` was inactive: 122%.
For the molecule `CC1(C)CC(=O)C(C=NC(C)(C)C)=C(O)C1`, the survival is inactive: 112%.
For the molecule `COc1cc(NC(=O)CCn2c(-c3ccccc3)cc(C(C)=O)c2C)cc(OC)c1`, the survival was inactive: 77%.
With `Cc1c(Cl)cccc1NC(=O)CSc1ncnc2c1sc1ccccc12`, the survival was inactive: 73%.
Take `Cc1cccc(CNC(=O)c2oc3c(c2C)-c2nn(Cc4ccccc4Cl)cc2CC3)c1`: the survival was inactive: 87%.

For the origin of these results see PubChem BioAssay AID463173 (ICCB-Longwood Screening Facility, Harvard Medical School, 2010).
